Assay results from the supplement of paper PMC12217912.
The list shows a part of the results. Sequences were assembled here from the parent chain. Inactive controls read about 0.05.

B1: TEV protease; numbered along this chain (parent)
chain: MGESLFKGPRDYNPISSSICHLTNESDGHTTSLYGIGFGPFIITNKHLFRRNNGTLVVQSLHGVFKVKDTTTLQQHLVDGRDMIIIRMPKDFPPFPQKLKFREPQREERICLVTTNFQTKSMSSMVSDTSCTFPSGDGIFWKHWIQTKDGQCGSPLVSTRDGFIVGIHSASNFTNTNNYFTSVPKNFMELLTNQEAQQWVSGWRLNADSVLWGGHKVFMVKPEEPFQPVKEATQL

Variants of: B1
Assay: raw area under fraction-flipped curve 0-4 h after induction (AUC4h, not background-subtracted), DNA-recorder readout of cleavage of the substrate (dimensionless); higher = more cleavage of the substrate by the protease variant
Settings: temperature: 34 °C; time window: 0-4 h after rhamnose induction
Description: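 In vivo DNA recorder in E. coli TOP10(DE3) ΔrhaA at 34 °C. Each TEVp single-site mutant (parent TEVp 0) is paired with a single-site variant of the 7-mer TEVs (canonical ENLYFQ|S). The substrate sits between flexible linkers in a Bxb1-sfGFP-TEVs-SsrA fusion, so cleavage stabilises Bxb1 and speeds flipping of a recombination array, read by NGS. The value is the raw area under the fraction-flipped curve over 0-4 h after rhamnose induction (AUC4h), with ≥20 reads per time point. It is not background-subtracted; inactive controls average about 0.047.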
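Also: Bxb1 expression induced with 0.2% (w/v) L-rhamnose at OD600 near 0.5, cultures sampled hourly, flipped fraction per protease–substrate barcode pair counted by paired-end Illumina sequencing.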

| Variant | area with substrate ENLYFAS | area with substrate ENLYFCS | area with substrate ENLYFES | area with substrate ENLYFFS | area with substrate ENLYFGS | area with substrate ENLYFHS | area with substrate ENLYFIS | area with substrate ENLYFKS | area with substrate ENLYFLS | area with substrate ENLYFMS | area with substrate ENLYFNS | area with substrate ENLYFPS | area with substrate ENLYFRS | area with substrate ENLYFTS | area with substrate ENLYFVS | area with substrate ENLYFYS | area with substrate ENLYFDS | area with substrate ENLYFSS | area with substrate ENLYFWS |
| --- | --- | --- | --- | --- | --- | --- | --- | --- | --- | --- | --- | --- | --- | --- | --- | --- | --- | --- | --- |
| S4D | 0.0699 | 0.0429 | 0.0641 | 0.0709 | 0.0461 | 0.0614 | 0.0553 | 0.0589 | 0.0602 | 0.0656 | 0.0659 | 0.0552 | 0.0586 | 0.0621 | 0.0599 | 0.0542 |  |  |  |
| L5E | 0.0614 | 0.0508 | 0.0625 | 0.0567 |  |  | 0.0477 | 0.0584 | 0.0528 | 0.0591 | 0.072 | 0.053 | 0.0513 |  | 0.0573 |  | 0.0735 | 0.0441 | 0.0547 |
| R10K | 0.0511 | 0.0586 | 0.0663 | 0.0606 |  | 0.0694 | 0.0585 | 0.0601 |  | 0.0701 | 0.0651 | 0.0594 | 0.0555 | 0.0553 | 0.0557 |  |  | 0.0686 |  |
| R10S | 0.0659 | 0.0553 | 0.0573 | 0.0537 | 0.0059 | 0.0679 | 0.0589 | 0.0594 | 0.0443 | 0.0651 | 0.0717 | 0.0579 | 0.0629 |  | 0.0414 |  | 0.0604 | 0.0611 | 0.0627 |
| S16H | 0.0895 | 0.0667 | 0.0615 | 0.0712 | 0.0607 |  | 0.0475 | 0.065 | 0.0564 | 0.073 | 0.0571 | 0.0626 | 0.0596 | 0.0598 |  | 0.0594 |  | 0.0643 | 0.0555 |
| S16R | 0.0566 | 0.0596 | 0.0561 | 0.046 |  | 0.0664 | 0.0645 | 0.0607 | 0.0187 | 0.0542 | 0.0663 | 0.0623 | 0.0558 | 0.0548 | 0.0665 | 0.0587 | 0.0539 | 0.0434 | 0.0578 |
| S16N | 0.0641 | 0.061 | 0.0581 | 0.0706 | 0.06 | 0.0521 | 0.0512 |  | 0.06 | 0.0613 | 0.0597 | 0.0511 |  | 0.0501 |  | 0.0626 | 0.0595 | 0.0529 | 0.0168 |
| S16V | 0.0514 | 0.0615 |  | 0.074 | 0.0316 | 0.039 | 0.0552 |  | 0.0598 | 0.061 | 0.0467 | 0.0522 |  | 0.0452 |  |  | 0.0309 | 0.0507 | 0.0596 |
| S16T | 0.0617 | 0.0661 | 0.0597 | 0.0643 | 0.0693 |  | 0.0568 | 0.0634 | 0.0642 | 0.0613 | 0.058 | 0.0482 |  | 0.052 |  | 0.0487 | 0.0432 | 0.0532 | 0.0548 |
| S16L | 0.0574 | 0.0632 | 0.0598 |  |  | 0.0652 | 0.0499 |  |  | 0.063 |  | 0.0379 |  | 0.0521 | 0.043 | 0.0646 |  |  | 0.0497 |
| S16I | 0.0587 | 0.0417 | 0.03 | 0.067 |  | 0.0674 | 0.0565 | 0.0627 |  | 0.0654 | 0.0581 | 0.062 | 0.0484 | 0.0584 |  |  | 0.0624 | 0.0615 | 0.0491 |
| S16A | 0.0635 | 0.0687 | 0.0665 | 0.0675 | 0.0691 |  | 0.0524 | 0.0493 | 0.0614 | 0.0606 | 0.0677 | 0.0544 | 0.0663 | 0.0472 | 0.0593 |  | 0.0528 | 0.0549 | 0.0526 |
| S16Q | 0.0557 | 0.0567 | 0.0605 | 0.0666 | 0.0485 | 0.0567 | 0.0603 | 0.0696 | 0.0576 | 0.0693 | 0.0666 | 0.0615 | 0.0542 | 0.0524 | 0.06 | 0.0525 | 0.0427 | 0.0444 | 0.0399 |
| S16C | 0.0846 |  | 0.0713 | 0.0647 | 0.0678 |  | 0.0665 | 0.0782 |  | 0.0558 | 0.0647 | 0.056 |  | 0.0386 | 0.059 |  |  | 0.0627 | 0.0569 |
| S16M | 0.036 | 0.0634 | 0.0701 | 0.074 |  | 0.0877 | 0.06 | 0.0566 |  | 0.0655 | 0.0564 | 0.0578 | 0.0784 | 0.0651 | 0.0506 | 0.0541 | 0.08 |  | 0.0484 |
| S16G | 0.0699 | 0.0527 | 0.0682 | 0.065 | 0.0605 | 0.0686 | 0.0628 | 0.0703 |  | 0.0677 | 0.066 | 0.0552 |  | 0.0736 | 0.0392 | 0.0619 |  |  | 0.0638 |
| D11W | 0.0619 | 0.0608 | 0.066 | 0.0673 |  | 0.0585 | 0.0558 | 0.0499 | 0.0566 | 0.0738 | 0.034 | 0.0677 | 0.0682 | 0.0707 | 0.0598 |  | 0.0571 | 0.0503 | 0.0514 |
| S18C | 0.0718 | 0.0675 | 0.0638 |  |  | 0.0759 | 0.0564 | 0.0548 | 0.0604 | 0.0673 | 0.0641 | 0.0566 | 0.0603 | 0.0612 | 0.0629 | 0.0547 | 0.057 | 0.0646 |  |
| S17W | 0.0663 | 0.0674 | 0.0482 | 0.0646 |  |  | 0.0618 |  | 0.052 | 0.0602 | 0.0653 | 0.053 |  | 0.0587 |  | 0.0435 | 0.0534 | 0.0516 | 0.0524 |
| N13T | 0.057 | 0.0647 |  | 0.074 |  | 0.0507 | 0.0386 | 0.0597 | 0.0779 | 0.082 |  | 0.0753 | 0.051 | 0.051 | 0.0597 | 0.0543 | 0.107 | 0.0772 | 0.0616 |
| N13S | 0.0677 | 0.0695 | 0.0528 | 0.0693 | 0.0558 | 0.063 | 0.0572 | 0.0662 |  | 0.0644 | 0.0637 | 0.064 | 0.061 | 0.0487 |  | 0.0538 |  | 0.0604 | 0.0571 |
| N13W | 0.0633 | 0.0555 | 0.0785 | 0.0738 | 0.0592 | 0.0608 | 0.0531 | 0.0668 | 0.0616 | 0.0665 | 0.0712 | 0.0645 | 0.0612 | 0.0632 | 0.0605 | 0.0675 | 0.063 | 0.0545 | 0.0577 |
| P14I | 0.0559 |  | 0.0558 | 0.0577 | 0.0554 | 0.0342 | 0.0606 | 0.0529 | 0.0996 | 0.0633 | 0.0616 | 0.0552 | 0.0571 | 0.0604 |  | 0.0702 | 0.0701 |  |  |
